# Measured values as given in the supplement of paper PMC8728848.
# The list shows a part of the results.
# B1: Gz-CVNH (Gibberella zeae) (protein)
# chain: MGSSHHHHHHSSGLVPRGSHMGNFHESSNNIWLEDGHILHAECGNGEGDYVESTLDLDYYIGNDDGSFSWGGENFSGSASNITLDIEGDDNIPVLRAELNPMDGDPVEANVNLSERIGNDCGTLIFLA
# Columns and labels:
# Assay in all cases: glycan array binding signal (z-score within array); higher = stronger binding
# Conditions in all cases: glycan notation: IUPAC condensed, linker removed
# [1] = target: Fuc(a1-2)Gal(b1-4)[Fuc(a1-3)]GlcNAc
# In short: (§1)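 Columns mapping to the same glycan were averaged after glycan names were converted to IUPAC-condensed notation. The data come from 3228 arrays in the Consortium for Functional Glycomics database, limited to those with an available protein sequence. Binding is reported as a within-array Z-score averaged across arrays of one protein sequence and across linkers.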
# [2] = target: Fuc(a1-2)Gal(b1-4)[Fuc(a1-3)]GlcNAc(b1-2)Man(a1-3)[Fuc(a1-2)Gal(b1-4)[Fuc(a1-3)]GlcNAc(b1-2)Man(a1-6)]Man(b1-4)GlcNAc(b1-4)GlcNAc
# In short: as §1
# [3] = target: Fuc(a1-2)Gal(b1-4)[Fuc(a1-3)]GlcNAc(b1-2)[Fuc(a1-2)Gal(b1-4)[Fuc(a1-3)]GlcNAc(b1-4)]Man(a1-3)[Fuc(a1-2)Gal(b1-4)[Fuc(a1-3)]GlcNAc(b1-2)Man(a1-6)]Man(b1-4)GlcNAc(b1-4)GlcNAc
# In short: as §1
# [4] = target: Fuc(a1-2)Gal(b1-4)[Fuc(a1-3)]GlcNAc(b1-3)Gal(b1-4)[Fuc(a1-3)]GlcNAc
# In short: as §1
# [5] = target: Fuc(a1-2)Gal(b1-4)[Fuc(a1-3)]GlcNAc(b1-3)Gal(b1-4)[Fuc(a1-3)]GlcNAc(b1-3)Gal(b1-4)[Fuc(a1-3)]GlcNAc
# In short: as §1
# [6] = target: Fuc(a1-2)Gal(b1-4)[Fuc(a1-3)]GlcNAc(b1-3)GalNAc
# In short: as §1
# [7] = target: Fuc(a1-2)Gal6S(b1-4)Glc
# In short: as §1
# [8] = target: Fuc(a1-2)Gal6S(b1-4)Glc6S
# In short: as §1
# [9] = target: Fuc(a1-2)Gal6S(b1-4)GlcNAc
# In short: as §1
# [10] = target: Fuc(a1-2)[Gal(a1-3)]Gal
# In short: as §1
# [11] = target: Fuc(a1-2)[Gal(a1-3)]Gal(b1-3)GalNAc
# In short: as §1
# [12] = target: Fuc(a1-2)[Gal(a1-3)]Gal(b1-3)GlcNAc
# In short: as §1
# [13] = target: Fuc(a1-2)[Gal(a1-3)]Gal(b1-3)GlcNAc(b1-2)Man(a1-3)[Fuc(a1-2)[Gal(a1-3)]Gal(b1-3)GlcNAc(b1-2)Man(a1-6)]Man(b1-4)GlcNAc(b1-4)GlcNAc
# In short: as §1
# [14] = target: Fuc(a1-2)[Gal(a1-3)]Gal(b1-3)GlcNAc(b1-2)Man(a1-3)[Fuc(a1-2)[Gal(a1-3)]Gal(b1-3)GlcNAc(b1-2)Man(a1-6)]Man(b1-4)GlcNAc(b1-4)[Fuc(a1-6)]GlcNAc
# In short: as §1
# [15] = target: Fuc(a1-2)[Gal(a1-3)]Gal(b1-3)GlcNAc(b1-3)GalNAc
# In short: as §1
# [16] = target: Fuc(a1-2)[Gal(a1-3)]Gal(b1-4)Glc
# In short: as §1
# [17] = target: Fuc(a1-2)[Gal(a1-3)]Gal(b1-4)GlcNAc
# In short: as §1
# [18] = target: Fuc(a1-2)[Gal(a1-3)]Gal(b1-4)GlcNAc(b1-2)Man(a1-3)[Fuc(a1-2)[Gal(a1-3)]Gal(b1-4)GlcNAc(b1-2)Man(a1-6)]Man(b1-4)GlcNAc(b1-4)GlcNAc
# In short: as §1
# [19] = target: Fuc(a1-2)[Gal(a1-3)]Gal(b1-4)GlcNAc(b1-2)Man(a1-3)[Fuc(a1-2)[Gal(a1-3)]Gal(b1-4)GlcNAc(b1-2)Man(a1-6)]Man(b1-4)GlcNAc(b1-4)[Fuc(a1-6)]GlcNAc
# In short: as §1
# [20] = target: Fuc(a1-2)[Gal(a1-3)]Gal(b1-4)GlcNAc(b1-3)GalNAc
# In short: as §1
# [21] = target: Fuc(a1-2)[Gal(a1-3)]Gal(b1-4)[Fuc(a1-3)]Glc
# In short: as §1
# [22] = target: Fuc(a1-2)[Gal(a1-3)]Gal(b1-4)[Fuc(a1-3)]GlcNAc
# In short: as §1
# [23] = target: Fuc(a1-2)[Gal(a1-3)]Gal(b1-4)[Fuc(a1-3)]GlcNAc(b1-3)GalNAc
# In short: as §1
# [24] = target: Fuc(a1-2)[Gal(a1-4)]Gal(b1-4)GlcNAc
# In short: as §1
# [25] = target: Fuc(a1-2)[GalNAc(a1-3)]Gal
# In short: as §1
# [26] = target: Fuc(a1-2)[GalNAc(a1-3)]Gal(b1-3)GalNAc(a1-3)[Fuc(a1-2)]Gal(b1-4)GlcNAc
# In short: as §1
# [27] = target: Fuc(a1-2)[GalNAc(a1-3)]Gal(b1-3)GlcNAc
# In short: as §1
# [28] = target: Fuc(a1-2)[GalNAc(a1-3)]Gal(b1-3)GlcNAc(b1-2)Man(a1-3)[Fuc(a1-2)[GalNAc(a1-3)]Gal(b1-3)GlcNAc(b1-2)Man(a1-6)]Man(b1-4)GlcNAc(b1-4)GlcNAc
# In short: as §1
# [29] = target: Fuc(a1-2)[GalNAc(a1-3)]Gal(b1-3)GlcNAc(b1-2)Man(a1-3)[Fuc(a1-2)[GalNAc(a1-3)]Gal(b1-3)GlcNAc(b1-2)Man(a1-6)]Man(b1-4)GlcNAc(b1-4)[Fuc(a1-6)]GlcNAc
# In short: as §1
# [30] = target: Fuc(a1-2)[GalNAc(a1-3)]Gal(b1-3)GlcNAc(b1-3)GalNAc
# In short: as §1
# [31] = target: Fuc(a1-2)[GalNAc(a1-3)]Gal(b1-4)Glc
# In short: as §1
# [32] = target: Fuc(a1-2)[GalNAc(a1-3)]Gal(b1-4)GlcNAc
# In short: as §1
# [33] = target: Fuc(a1-2)[GalNAc(a1-3)]Gal(b1-4)GlcNAc(b1-2)Man(a1-3)[Fuc(a1-2)[GalNAc(a1-3)]Gal(b1-4)GlcNAc(b1-2)Man(a1-6)]Man(b1-4)GlcNAc(b1-4)GlcNAc
# In short: as §1
# [34] = target: Fuc(a1-2)[GalNAc(a1-3)]Gal(b1-4)GlcNAc(b1-2)Man(a1-3)[Fuc(a1-2)[GalNAc(a1-3)]Gal(b1-4)GlcNAc(b1-2)Man(a1-6)]Man(b1-4)GlcNAc(b1-4)[Fuc(a1-6)]GlcNAc
# In short: as §1
# [35] = target: Fuc(a1-2)[GalNAc(a1-3)]Gal(b1-4)GlcNAc(b1-3)Gal(b1-4)GlcNAc
# In short: as §1
# [36] = target: Fuc(a1-2)[GalNAc(a1-3)]Gal(b1-4)GlcNAc(b1-3)Gal(b1-4)GlcNAc(b1-3)Gal(b1-4)GlcNAc
# In short: as §1
# [37] = target: Fuc(a1-2)[GalNAc(a1-3)]Gal(b1-4)GlcNAc(b1-3)GalNAc
# In short: as §1
# [38] = target: Fuc(a1-2)[GalNAc(a1-3)]Gal(b1-4)[Fuc(a1-3)]GlcNAc
# In short: as §1
# [39] = target: Fuc(a1-2)[GalNAc(a1-3)]Gal(b1-4)[Fuc(a1-3)]GlcNAc(b1-3)GalNAc
# In short: as §1
# [40] = target: Fuc(a1-2)[GalNAc(a1-4)]Gal(b1-4)GlcNAc
# In short: as §1
# [41] = target: Fuc(a1-2)[GalNAc(b1-3)]Gal
# In short: as §1
# [42] = target: Fuc(a1-3)GlcNAc
# In short: as §1
# [43] = target: Fuc(a1-3)[Gal(b1-4)]Glc6S
# In short: as §1
# [44] = target: Fuc(a1-3)[Gal(b1-4)]GlcNAc
# In short: as §1
# [45] = target: Fuc(a1-3)[Gal(b1-4)]GlcNAc(b1-2)Man(a1-3)[Fuc(a1-3)[Gal(b1-4)]GlcNAc(b1-2)Man(a1-6)]Man(b1-4)GlcNAc(b1-4)GlcNAc
# In short: as §1
binder,measurement,setting,value
B1,glycan array binding signal (z-score),[1],-0.125
same,glycan array binding signal (z-score),[2],0.021
same,glycan array binding signal (z-score),[3],0.125
same,glycan array binding signal (z-score),[4],-0.115
same,glycan array binding signal (z-score),[5],-0.072
same,glycan array binding signal (z-score),[6],0.181
same,glycan array binding signal (z-score),[7],-0.135
same,glycan array binding signal (z-score),[8],-0.132
same,glycan array binding signal (z-score),[9],-0.139
same,glycan array binding signal (z-score),[10],-0.147
same,glycan array binding signal (z-score),[11],-0.107
same,glycan array binding signal (z-score),[12],-0.131
same,glycan array binding signal (z-score),[13],-0.156
same,glycan array binding signal (z-score),[14],-0.107
same,glycan array binding signal (z-score),[15],0.001
same,glycan array binding signal (z-score),[16],-0.123
same,glycan array binding signal (z-score),[17],-0.094
same,glycan array binding signal (z-score),[18],-0.062
same,glycan array binding signal (z-score),[19],-0.132
same,glycan array binding signal (z-score),[20],-0.12
same,glycan array binding signal (z-score),[21],-0.109
same,glycan array binding signal (z-score),[22],-0.114
same,glycan array binding signal (z-score),[23],0.012
same,glycan array binding signal (z-score),[24],-0.147
same,glycan array binding signal (z-score),[25],-0.145
same,glycan array binding signal (z-score),[26],-0.144
same,glycan array binding signal (z-score),[27],-0.075
same,glycan array binding signal (z-score),[28],-0.121
same,glycan array binding signal (z-score),[29],-0.07
same,glycan array binding signal (z-score),[30],0.089
same,glycan array binding signal (z-score),[31],-0.186
same,glycan array binding signal (z-score),[32],-0.153
same,glycan array binding signal (z-score),[33],-0.083
same,glycan array binding signal (z-score),[34],-0.162
same,glycan array binding signal (z-score),[35],-0.152
same,glycan array binding signal (z-score),[36],-0.146
same,glycan array binding signal (z-score),[37],-0.15
same,glycan array binding signal (z-score),[38],-0.091
same,glycan array binding signal (z-score),[39],0.065
same,glycan array binding signal (z-score),[40],-0.142
same,glycan array binding signal (z-score),[41],-0.148
same,glycan array binding signal (z-score),[42],-0.129
same,glycan array binding signal (z-score),[43],-0.108
same,glycan array binding signal (z-score),[44],-0.14
same,glycan array binding signal (z-score),[45],-0.154
